Reference: PubChem BioAssay AID686978 (National Center for Advancing Translational Sciences (NCATS), 2013)
“And” between values parts separate entries of the source, which are not always exact repeats. Equal entries are not always repeated. The whole screen tested about 420,000 compounds, of which about 64,000 (15%) were called active. The inconclusive results got no clear call from the source; some entries with a clear call stand among them for comparison. Calls follow the shape of the dose curve; as a rule, active = well fitted inhibition curve with a large enough effect; inconclusive = small, poorly fitted or top-dose-only effect; inactive = flat fitted curve, though single readings scatter. Potencies beside an inconclusive call are fits to weak or partial responses and may not hold up.

Test: qHTS for Inhibitors of human tyrosyl-DNA phosphodiesterase 1 (TDP1): qHTS in cells in absence of CPT; also: nearly all actives have a fitted effect of over 55% in size
Conditions: DT40 Tdp1-/- hTDP1 cells, no CPT, ATP luminescence, 48 h; activity change, negative = growth inhibition: at 46.2 µM (top of the series) unless noted
Method in brief: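 Cells were dispensed at 400 per well, compounds added by pin tool, plates incubated ≥48 hr at 37 °C, then CellTiter-Glo added for 30 min at room temperature before luminescence reading. Line: DT40 Tdp1-/- complemented with hTDP1; camptothecin omitted.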
% is scaled to controls: 0 for no effect and ±100 for the full control effect; potency is read from the fitted curve at half-maximal effect; tags tell the direction and shape of the fitted curve.

Row | Compound | Potency | activity change, negative = growth inhibition
1 | COc1cccc(NC(=O)c2cccc(N3C(=O)C4C5C=CC(C5)C4C3=O)c2)c1 (centres undefined) | inconclusive: 14.6 µM [inhibitor, partial curve] | 
2 | COc1cccc(C(=O)Nc2sc(C(C)C)cc2C(N)=O)c1OC | inconclusive: 29.1 µM [inhibitor, single point] | 
3 | COC(C(=O)Nc1ccnn1C1CCN(Cc2cccc(C)n2)CC1)c1ccccc1 (centres undefined) | inactive | 
4 | COc1ccc(OC(=O)N(C)C[C@H]2OCc3cn(nn3)CCCC(=O)N([C@H](C)CO)C[C@@H]2C)cc1 | inactive | 
5 | COc1ccc(C)cc1S(=O)(=O)Nc1cccc(-c2ccc(N3CCCCCC3)nn2)c1 | inconclusive: 18.4 µM [inhibitor, single point] | 
6 | COC(=O)CCCNC(=O)c1ccc2nc(Cc3ccc(OC)cc3)oc2c1 | inconclusive: 16.4 µM [inhibitor, single point] | 
7 | COc1ccc(NC(=O)CN(C)C(=O)/C=C/c2cn(-c3ccccc3)nc2-c2ccc(C)cc2)cc1 | active: 20.6 µM | 
8 | CCOCC(O)COc1ccc(NC(=O)CC[S+](C)C)cc1 (centres undefined) | inactive | 
9 | O=C(CCN1CCOCC1)c1ccc(Cl)cc1 | active: 2.59 µM | 
10 | O=C(c1ccco1)N1CCN(C(=O)c2cc(-c3ccncc3)nc3ccc(Br)cc23)CC1 | active: 9.2 µM | 
11 | CC(NC(=O)Cn1cc(C(=O)C2CC2)c2ccccc21)c1ccccc1 (centres undefined) | inactive | 
12 | O=C(c1cc(-c2ccc(O)cc2)on1)N1CCN(c2ccccc2)CC1 | inconclusive: 18.4 µM [inhibitor, single point] and inconclusive: 29.1 µM [inhibitor, single point] | 
13 | CCn1cc(/C=C(\NC(=O)c2ccccc2OC)C(=O)NCCN2CCOCC2)c2ccccc21 | inconclusive: 29.1 µM [inhibitor, single point] | 
14 | CC1=C(CC(=O)O)c2cc(F)ccc2C1=Cc1ccc(S(C)(=O)=O)cc1 | inconclusive: 29.1 µM [inhibitor, single point] | 
15 | CCCC(O)(c1ccc(Br)cc1)C(CN1CCOCC1)c1ccc(Cl)cc1 (centres undefined) | inconclusive: 23.1 µM [inhibitor, single point] | 
16 | COc1ccc(-n2nc([N+](=O)[O-])c(=NCCc3cccc(C)c3)n2O)cc1 | inconclusive: 29.1 µM [inhibitor, single point] | 
17 | O=C(c1ccc(OC2CCN(C/C=C/c3ccccc3)CC2)cc1)N1CCCCC1 | inconclusive: 14.6 µM [inhibitor, single point] | 
18 | CCN(c1cccc(C)c1)c1ncnc2c1cnn2-c1cccc(Cl)c1 | inconclusive: 2.91 µM [inhibitor, partial curve, poor fit] | 
19 | Cc1ccccc1Cn1c(-c2ccc(=O)[nH]c2)nc2ccccc21 | inconclusive: 8.2 µM [inhibitor, partial curve] | 
20 | COc1ccc(NC(=O)COC(=O)C2CCC(C(C)(C)C)CC2)c([N+](=O)[O-])c1 (centres undefined) | inconclusive: 29.1 µM [inhibitor, single point] | 
21 | Cc1ccc(CN2CCSc3ccc(C(=O)NCC4CCCO4)cc32)cc1 (centres undefined) | inconclusive: 29.1 µM [inhibitor, single point] | 
22 | O=C(Cn1nc(-c2ccc(Cl)cc2)ccc1=O)N1CCN(c2ccccc2)CC1 | inconclusive: 25.9 µM [inhibitor, single point] | 
23 | O=C(CSc1ccc2c(c1)OCCO2)Nc1cccnc1 | inconclusive: 23.1 µM [inhibitor, partial curve] | 

Row | Compound | Potency | activity change, negative = growth inhibition
24 | CNC(C)c1ccc(S(N)(=O)=O)cc1 (centres undefined) | inconclusive: 0.231 µM [inhibitor, partial curve, poor fit] | 
25 | CC(C)(C)C(=O)Nc1nc(-c2ccc3c(c2)OCO3)cs1 |  | inconclusive: -35.9% [inhibitor]
26 | COC(=O)c1ccc(NC2=CC(=O)CC(C)(C)C2)cc1 | active: 23.1 µM | 
27 | COc1cc(OC)c(N(C)C(=O)c2sc3nc4n(c(=O)c3c2C)CCCC4)cc1Cl | active: 16.4 µM | 
28 | COc1ccc(NC(=O)CN2C(=O)C(C)Oc3ccc(C)cc32)cc1 (centres undefined) | inactive | 
29 | O=C(CSCc1cnn(-c2ccccc2)c1-n1cccc1)NCc1cccnc1 | inconclusive: 25.9 µM [inhibitor, partial curve] | 
30 | Cc1ccc(C)c(-c2nnc(NC(=O)CCS(=O)(=O)c3ccccc3)o2)c1 | inconclusive: 18.4 µM [inhibitor, single point] | 
31 | CN1CCC(N(C)C(=S)NCCc2ccccc2)CC1 | inactive | 
32 | Cc1ccc(Nc2nc3ccccc3nc2Nc2c(C)n(C)n(-c3ccccc3)c2=O)cc1 | inconclusive: 6.51 µM [inhibitor, single point] | 
33 | COc1ccc(CN2COc3ccc4c(-c5ccccc5)cc(=O)oc4c3C2)cc1OC | inconclusive: 20.6 µM [inhibitor, partial curve, poor fit] | 
34 | COC(=O)[C@H](Cc1ccccc1)NCCCn1cnc(C(=O)Nc2ccc(C)c(C)c2)n1 | active: 18.4 µM | 
35 | O=C(N/N=C/c1c[nH]c2ccccc12)c1ccccc1 | inactive | 
36 | Cc1ccc(C2N=C(Nc3nc4ccccc4o3)NC3=C2C(=O)CC(C)(C)C3)cc1 (centres undefined) | active: 4.47 µM | 
37 | Cc1ccccc1N(CC(=O)NCCc1ccccc1)C(=O)CCC(=O)Nc1ccccn1 | inactive | 
38 | O=C(COc1ccc(F)cc1)Nc1cc(Cl)ccc1-n1cncn1 | inconclusive: 20.6 µM [inhibitor, single point] | 
39 | O=S(=O)(c1cccc2nsnc12)N1CCN(C/C=C/c2ccccc2)CC1 | inconclusive: 20.6 µM [inhibitor, single point] | 
40 | COP(=O)(OC)c1nc(-c2cccc3ccccc23)oc1NCc1ccccc1 | active: 18.4 µM | 
41 | CCN1/C(=C/C=C/c2sc3ccccc3[n+]2CC)Sc2ccccc21 | active: 75 nM and active: 146 nM | 
42 | O=C1NC[C@H](Cc2ccccc2)N(CC2CCN(CCc3ccccc3)CC2)C1=O | inactive | 
43 | Cc1ccc(C2=NNC(c3ccc(Cl)cc3)=Nc3ccccc32)o1 | active: 11.6 µM | 
44 | CN(C(=O)COC(=O)C1CCN(S(=O)(=O)c2cccs2)CC1)c1ccccc1 |  | inconclusive: -32.3% [inhibitor]
45 | COc1ccccc1NC(=O)c1sc2ncn(Cc3ccc(C)cc3)c(=O)c2c1C | inconclusive: 10.3 µM [inhibitor, partial curve, poor fit] | 
46 | COc1ccc([C@H]2/C=C\CN(S(=O)(=O)c3cccc4cccnc34)[C@@H](C)C(=O)N2Cc2ccc(F)cc2)cc1 | active: 14.6 µM | 

Row | Compound | Potency | activity change, negative = growth inhibition
47 | N#CC1=C2Sc3ccccc3N2CCCC1=O | inactive | 
48 | COc1ccc(CNC(C)C(=O)Nc2ccc3ccccc3c2)cc1OC (centres undefined) | inconclusive: 16.4 µM [inhibitor, single point] | 
49 | Cc1nc(Nc2ccc(S(=O)(=O)N3CCCC3)cc2)c2nnn(Cc3ccccc3)c2n1 |  | inconclusive: -33.2% [inhibitor]
50 | O=C(NCCN1CCN(c2ccccc2)CC1)C1CCN(S(=O)(=O)c2cccc3nonc23)CC1 | inconclusive: 14.6 µM [inhibitor, single point] | 
51 | CC(=O)Nc1ccc(C(=O)/C=C/c2ccc[nH]2)cc1 | inconclusive: 29.1 µM [inhibitor, single point] | 
52 | COc1ccc(C(=O)O/N=C(\N)Cc2ccc(Cl)c(Cl)c2)cc1OC | inconclusive: 18.4 µM [inhibitor, single point] | 
53 | O=C(NCc1ccccc1)c1cnc(N2CCCCC2)c2ccccc12 | inconclusive: 29.1 µM [inhibitor, single point] | 
54 | CC1CCCN(C(=O)COC(=O)CNS(=O)(=O)c2ccc3ccccc3c2)C1 (centres undefined) | inactive | 
55 | CCN(CC(=O)Nc1ccccc1OC)C(=O)CSCC(=O)Nc1cccc(C)c1 | inactive | 
56 | COc1ccc(Cl)cc1NC(=O)CSC1=Nc2ccccc2C2=NC(CC(=O)NCc3cccs3)C(=O)N12 (centres undefined) | active: 23.1 µM | 
57 | COc1cc(-c2c(NC(=O)c3ccco3)oc3ccc(Cl)cc3c2=O)cc(OC)c1OC | inactive | 
58 | Cc1ccc(-c2nnn(CC(=O)N(CC(=O)NC3CCCCC3)c3cnc4ccccc4c3)n2)o1 | inactive | 
59 | CCn1c(SCc2ccccc2)nc2cc(OC)c(OC)cc2c1=O | inconclusive: 18.4 µM [inhibitor, partial curve] | 
60 | CCOC(=O)C1CCCN(c2cc(=O)n(C3CCCCC3)c(=O)[nH]2)C1 (centres undefined) | inactive | 
61 | CCOC(=O)c1c(S(=O)(=O)NCC2CCN(CCc3cccs3)CC2)c(C)n(C)c1C | inactive | 
62 | CCc1ccc(-n2c(=O)c3cccnc3n2CC(=O)NCc2ccc(C)cc2)cc1 | inconclusive: 23.1 µM [inhibitor, single point] | 
63 | COc1ccc(Nc2c(-c3ccccn3)nc3ccc(Cl)cn23)cc1 | active: 1.64 µM | 
64 | O=c1c2ccccc2nc2c3ccccc3c(NCc3ccccn3)nn12 | active: 14.6 µM | 
65 | COc1cccc(Nc2nc3ccc(C)cc3nc2-n2nc(C)cc2C)c1 | inconclusive: 29.1 µM [inhibitor, single point] | 
66 | COc1ccccc1N1CCN(C(=O)CN2C(=O)c3cccc4cccc(c34)C2=O)CC1 | inconclusive: 23.1 µM [inhibitor, single point] | 
67 | CCN(CC(=O)Nc1ccc(NC(C)=O)cc1)C(=O)c1cn(-c2ccccc2)nc1-c1cccs1 | inconclusive: 13 µM [inhibitor, partial curve] | 
68 | CCO[C@H]1OC(C(=O)N2CCN(Cc3ccccc3)CC2)=C[C@@H](c2ccc(C(F)(F)F)cc2)[C@@H]1CCCO | active: 14.6 µM | 
69 | O=C(Nc1ccc(CN2CCOCC2)cc1)c1cccc(-c2cc3ccccc3oc2=O)c1 | inconclusive: 20.6 µM [inhibitor, single point] | 
